According to ChEMBL document CHEMBL3124763:
Active and inactive are the calls of the source. The calls are words filed in the database; no cut-off is given here. Where a SMILES comes first, the peptide text is derived from it. The star is where a group is joined. Decanoyl = CCCCCCCCCC(=O)*; CH2Cl = ClC*

What was measured:
Furin (Homo sapiens) [1] = target: Furin (Homo sapiens) (UniProt P09958); test: Inhibition of furin (unknown origin) assessed as HA5-mediated membrane fusion at 100 uM after 36 hrs by cell-based luciferase reporter gene assay
UniProt P09958, sequence (P09958 whole entry, the tested form may be a part): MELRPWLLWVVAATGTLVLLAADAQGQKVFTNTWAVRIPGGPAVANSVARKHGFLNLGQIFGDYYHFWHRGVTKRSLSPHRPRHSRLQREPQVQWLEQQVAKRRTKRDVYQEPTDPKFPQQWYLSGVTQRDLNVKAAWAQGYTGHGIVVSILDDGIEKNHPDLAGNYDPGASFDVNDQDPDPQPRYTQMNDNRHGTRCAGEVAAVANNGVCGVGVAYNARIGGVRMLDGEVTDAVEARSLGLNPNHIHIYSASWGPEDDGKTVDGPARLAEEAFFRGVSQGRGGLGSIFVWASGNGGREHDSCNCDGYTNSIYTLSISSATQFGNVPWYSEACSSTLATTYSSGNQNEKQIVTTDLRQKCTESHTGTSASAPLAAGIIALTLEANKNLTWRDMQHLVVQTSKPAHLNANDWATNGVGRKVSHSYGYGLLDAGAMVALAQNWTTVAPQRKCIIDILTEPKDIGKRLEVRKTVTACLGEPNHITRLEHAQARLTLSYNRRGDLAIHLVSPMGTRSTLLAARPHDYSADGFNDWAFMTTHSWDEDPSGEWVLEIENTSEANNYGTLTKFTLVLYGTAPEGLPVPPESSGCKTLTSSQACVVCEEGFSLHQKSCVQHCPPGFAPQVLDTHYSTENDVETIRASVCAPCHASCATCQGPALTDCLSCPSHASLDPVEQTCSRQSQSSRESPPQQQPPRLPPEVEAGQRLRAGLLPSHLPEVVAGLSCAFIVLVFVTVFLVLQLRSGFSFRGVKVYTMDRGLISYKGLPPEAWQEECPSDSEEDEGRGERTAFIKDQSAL

Vero = test: Inhibition of furin in African green monkey Vero cells assessed as protection against Stx-induced toxicity at 2 to 20 uM incubated for 4 hrs prior to Stx challenge measured after 24 hrs by LDH assay; settings: Chlorocebus sabaeus
Furin (Homo sapiens) [2] = target: Furin (Homo sapiens) (UniProt P09958); test: Inhibition of furin (unknown origin) assessed as HA5-mediated membrane fusion at 12.5 to 50 uM after 36 hrs by cell-based luciferase reporter gene assay

SMILES: CCCCCCCCCC(=O)N[C@@H](CCCNC(=N)N)C(=O)N[C@H](C(=O)N[C@@H](CCCCN)C(=O)N[C@@H](CCCNC(=N)N)C(=O)CCl)C(C)C (Decanoyl-RVKR-CH2Cl)
- inhibition (Furin (Homo sapiens) [1]): 50%
- inhibition (Vero): Active
- inhibition (Furin (Homo sapiens) [2]): Active
